The other results are listed elsewhere or left out. One pool of 16,384 single-stranded DNAs met each Rep nickase domain in vitro at 3 µM enzyme and 37 °C for 1 h; the strands have 90 letters, of which the middle is given. Uncut reads are compared with the no-enzyme pool on a log2 scale; the lower, the more was cut; hits are not called. Shares of all reads are compared; uncut strands gain when others are lost, and binding without cutting may add a little.

What all share (assay): uncleaved DNA left, log2 of reads against the no-enzyme library (log2 ratio); higher = less cleavage (more negative = more Rep cleavage of the k-mer); sequences stand for … in CTCGTCCG…ACCGGAGA
In experiment [1] the test system is T1, Rep nickase domain of Muscovy duck circovirus.
T1 sequence (residues 1-111 of Rep, tag left off): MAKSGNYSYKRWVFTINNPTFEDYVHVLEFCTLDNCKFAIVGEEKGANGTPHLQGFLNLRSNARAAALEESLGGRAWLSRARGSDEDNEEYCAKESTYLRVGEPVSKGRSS
The procedure: (§1)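 A pool of 90-nt single-stranded DNAs with seven random bases just before the constant AC of the nick site (name = the seven bases) was cut by 3 µM recombinant His6-SUMO-tagged Rep nickase domain (300 nM DNA, 50 mM HEPES pH 8.0, 50 mM NaCl, 1 mM MnCl2, 1 h, 37 °C, three replicates). Uncut DNA was amplified and sequenced.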

In experiment [2] the test system is T2, Rep nickase domain of banana bunchy top virus.
T2 sequence (residues 1-94 of Rep, tag left off): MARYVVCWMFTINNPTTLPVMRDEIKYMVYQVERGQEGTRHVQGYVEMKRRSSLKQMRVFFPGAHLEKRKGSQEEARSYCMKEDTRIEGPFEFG
The procedure: as §1
Experiment [3] has as its system T3, Rep nickase domain of cabbage leaf curl virus.
T3 sequence (residues 1-116 of Rep, tag left off): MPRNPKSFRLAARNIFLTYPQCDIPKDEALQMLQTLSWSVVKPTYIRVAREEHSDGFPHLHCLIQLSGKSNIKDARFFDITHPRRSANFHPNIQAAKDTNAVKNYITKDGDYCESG
As to the method: as §1
The test system of experiment [4] is T4, Rep nickase domain of chickpea chlorotic dwarf virus.
T4 sequence (residues 1-124 of Rep, tag left off): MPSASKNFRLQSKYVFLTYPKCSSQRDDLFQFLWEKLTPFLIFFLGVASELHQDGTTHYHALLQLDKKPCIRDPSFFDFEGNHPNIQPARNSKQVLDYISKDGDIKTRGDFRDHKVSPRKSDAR
The procedure:
as §1

The subject of experiment [5] is T5, Rep nickase domain of faba bean necrotic yellows virus.
T5 sequence (residues 1-98 of Rep, tag left off): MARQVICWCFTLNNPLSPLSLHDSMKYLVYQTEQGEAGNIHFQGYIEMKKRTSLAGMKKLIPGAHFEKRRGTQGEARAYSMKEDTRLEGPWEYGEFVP
As to the method:
as §1

In experiment [6] the test system is T6, Rep nickase domain of maize striate mosaic virus.
T6 sequence (residues 1-117 of Rep, tag left off): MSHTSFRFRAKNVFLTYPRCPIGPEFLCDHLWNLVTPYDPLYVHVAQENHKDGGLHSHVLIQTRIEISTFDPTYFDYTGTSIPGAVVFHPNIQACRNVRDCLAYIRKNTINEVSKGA
As to the method: as §1
For experiment [7], the system named is T7, Rep nickase domain of porcine circovirus 2.
T7 sequence (residues 2-116 of Rep, tag left off): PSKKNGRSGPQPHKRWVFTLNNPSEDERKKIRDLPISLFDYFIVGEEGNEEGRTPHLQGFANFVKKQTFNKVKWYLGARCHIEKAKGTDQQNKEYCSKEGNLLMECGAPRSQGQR
As to the method: as §1
Experiment [8] has as its system T8, Rep nickase domain of tomato golden mosaic virus.
T8 sequence (residues 1-124 of Rep, tag left off): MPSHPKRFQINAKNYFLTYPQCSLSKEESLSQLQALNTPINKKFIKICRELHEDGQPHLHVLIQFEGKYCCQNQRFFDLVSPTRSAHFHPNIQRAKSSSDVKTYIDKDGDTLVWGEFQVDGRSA
As to the method: as §1
For experiment [9], the system named is T9, Rep nickase domain of tomato yellow leaf curl virus.
T9 sequence (residues 1-136 of Rep, tag left off): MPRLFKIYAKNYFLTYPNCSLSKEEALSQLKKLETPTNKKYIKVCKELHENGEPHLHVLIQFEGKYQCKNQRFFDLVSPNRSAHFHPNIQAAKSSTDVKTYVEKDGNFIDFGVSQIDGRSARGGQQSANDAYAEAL
The procedure: as §1
Experiment [10] has as its system T10, Rep nickase domain of wheat dwarf virus.
T10 sequence (residues 1-137 of Rep, tag left off): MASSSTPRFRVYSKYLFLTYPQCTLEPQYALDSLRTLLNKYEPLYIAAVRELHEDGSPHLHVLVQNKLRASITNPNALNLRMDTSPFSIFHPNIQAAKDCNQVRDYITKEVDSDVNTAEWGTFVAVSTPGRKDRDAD
As to the method: as §1

With TCGTGGA, the “uncleaved DNA left (log2)” value was 0.0541 in [1]; -0.126 in [2]; 0.176 in [3]; 0.027 in experiment [4]; -0.0836 in experiment [5]; -0.261 in experiment [6]. For the same sequence, the “uncleaved DNA left (log2)” value was -0.219 in experiment [7], -0.0245 in [8], -0.117 in experiment [9] and -0.0372 in experiment [10].

Consider GCGATGC, for which the “uncleaved DNA left (log2)” value in experiment [1] is 0.0618; in experiment [2] it was -0.0167; in [3], -0.122; in experiment [4], 0.405; in [5], -0.0166; in experiment [6], 0.0289. The “uncleaved DNA left (log2)” value in experiment [7] was 0.0343; in experiment [8], -0.00696; in experiment [9] it was -0.0963; in experiment [10] it was 0.0366.

Take AGCCGTG: the “uncleaved DNA left (log2)” value in experiment [1] is -0.0191; in experiment [2] it was -0.0316; in experiment [3] it was -0.197; in experiment [4], -0.0357; in [5], -0.059; in experiment [6] it was -0.152. For the same sequence, the “uncleaved DNA left (log2)” value in experiment [7] was 0.0946; in experiment [8] it was -0.0227; in experiment [9], -0.0909; in experiment [10], -0.147.

In the case of GAAACCA, the “uncleaved DNA left (log2)” value was -0.0338 in experiment [1]; 0.0755 in experiment [2]; 0.148 in experiment [3]; -0.671 in experiment [4]; -0.0426 in [5]; 0.72 in [6]. Also, the “uncleaved DNA left (log2)” value in experiment [7] is -0.12; in [8], 0.042; in experiment [9] it was 0.00883; in [10], 0.132.

GCCTGAA: the “uncleaved DNA left (log2)” value was -0.11 in experiment [1]; -0.154 in experiment [2]; 0.00185 in [3]; 0.437 in experiment [4]; -0.0638 in experiment [5]; 0.255 in [6]. In addition, the “uncleaved DNA left (log2)” value in experiment [7] is -0.00206; in experiment [8], 0.00543; in experiment [9], -0.122; in experiment [10], -0.0339.

Consider ACTCTTT, for which the “uncleaved DNA left (log2)” value in experiment [1] was 0.169; in experiment [2] it was -0.12; in [3], -0.307; in [4] it was -2.39; in experiment [5], 0.0713; in experiment [6], -0.729. Besides, the “uncleaved DNA left (log2)” value in experiment [7] was -1.02; in experiment [8], 0.0593; in experiment [9], -0.159; in experiment [10], -0.0284.

In the case of GCAATCG, the “uncleaved DNA left (log2)” value is 0.042 in [1]; 0.0672 in experiment [2]; -0.79 in experiment [3]; -0.294 in experiment [4]; 0.00898 in [5]; -0.941 in experiment [6]. The “uncleaved DNA left (log2)” value in experiment [7] is 0.166; in experiment [8], 0.0155; in experiment [9], -0.0313; in experiment [10] it was -0.13.

As for GATATGT, the “uncleaved DNA left (log2)” value was 0.0694 in [1]; 0.00508 in experiment [2]; 0.269 in experiment [3]; 0.384 in experiment [4]; 0.0488 in [5]; 0.567 in [6]. The “uncleaved DNA left (log2)” value was -0.0466 in experiment [7], 0.186 in [8], 0.175 in experiment [9] and 0.106 in experiment [10].

As to TTCTCGC, the “uncleaved DNA left (log2)” value in [1] is -0.00877; in [2] it was -0.118; in [3] it was -0.485; in experiment [4], -0.867; in experiment [5] it was -0.0823; in experiment [6] it was -1.18. The “uncleaved DNA left (log2)” value in experiment [7] was -0.0379; in experiment [8], -0.239; in experiment [9] it was -0.213; in [10], -0.128.

As for CTAATTG, the “uncleaved DNA left (log2)” value was 0.141 in experiment [1]; 0.0507 in experiment [2]; -0.551 in experiment [3]; -0.577 in experiment [4]; 0.0551 in [5]; -1.19 in [6]. Moreover, the “uncleaved DNA left (log2)” value in experiment [7] was 0.234; in experiment [8], 0.0957; in [9], 0.0957; in experiment [10] it was -0.117.

For the sequence GCTATGA, the “uncleaved DNA left (log2)” value in experiment [1] was 0.0937; in experiment [2], 0.0753; in experiment [3], 0.0758; in experiment [4], 0.537; in [5], -0.0983; in experiment [6] it was 0.114. Also, the “uncleaved DNA left (log2)” value in experiment [7] was 0.0643; in [8], 0.0724; in [9] it was 0.0486; in experiment [10], -0.0105.

As to CTCAAGT, the “uncleaved DNA left (log2)” value is -0.139 in [1]; 0.00899 in experiment [2]; 0.0697 in [3]; -0.238 in [4]; 0.01 in experiment [5]; -0.955 in experiment [6]. Also, the “uncleaved DNA left (log2)” value is -0.0189 in experiment [7], 0.0164 in experiment [8], -0.0635 in experiment [9] and 0.00321 in experiment [10].

Consider CCCGACT, for which the “uncleaved DNA left (log2)” value is -0.229 in experiment [1]; -0.142 in experiment [2]; -0.0771 in [3]; -0.773 in [4]; -0.132 in experiment [5]; 0.405 in experiment [6]. For the same sequence, the “uncleaved DNA left (log2)” value in [7] is -0.223; in [8], 0.0565; in experiment [9] it was -0.208; in [10], -0.166.

Turning to GAACTAG, the “uncleaved DNA left (log2)” value in experiment [1] was 0.142; in experiment [2] it was 0.132; in experiment [3], -0.366; in experiment [4], -0.591; in [5], 0.179; in experiment [6], -0.825. Also, the “uncleaved DNA left (log2)” value worked out at 0.118 in experiment [7], 0.0925 in experiment [8], 0.128 in experiment [9] and 0.0884 in [10].

Consider CGCACCT, for which the “uncleaved DNA left (log2)” value in experiment [1] is -0.152; in [2] it was -0.126; in experiment [3], -0.162; in experiment [4] it was -1.2; in [5], -0.0428; in experiment [6], -0.0501. In addition, the “uncleaved DNA left (log2)” value was -0.376 in experiment [7], -0.225 in experiment [8], -0.0948 in experiment [9] and 0.0203 in experiment [10].
